Experimental data published in PMC11550485 (Science (New York, N.Y.), 2023).

Molecular target: T1, GST-TRIM11 (human, UniProt Q96F44 1-468)
T1 sequence (looked up): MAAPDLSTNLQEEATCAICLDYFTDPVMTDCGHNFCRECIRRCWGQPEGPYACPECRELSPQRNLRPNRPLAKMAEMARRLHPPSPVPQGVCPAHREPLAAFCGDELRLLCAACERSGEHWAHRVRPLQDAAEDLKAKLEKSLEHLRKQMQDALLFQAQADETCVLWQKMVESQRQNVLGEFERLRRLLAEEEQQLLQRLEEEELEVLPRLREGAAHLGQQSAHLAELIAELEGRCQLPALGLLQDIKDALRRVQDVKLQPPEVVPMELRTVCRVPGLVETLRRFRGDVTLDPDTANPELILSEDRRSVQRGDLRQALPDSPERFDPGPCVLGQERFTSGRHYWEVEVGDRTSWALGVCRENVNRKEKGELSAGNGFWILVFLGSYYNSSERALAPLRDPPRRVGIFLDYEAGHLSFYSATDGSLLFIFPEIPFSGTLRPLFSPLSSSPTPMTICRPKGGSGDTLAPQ
Test: pull-down

binding result: binds
B1: 6×His-GFP-tau P301L (natural protein)
chain: not shown
